Reference: PubChem BioAssay AID488969 (Vanderbilt High Throughput Screening Facility, 2010)
Over roughly 110,000 compounds, “z-score” has its median near -0.1; the highest 2% begin near 2. Some of the results follow. Active and inactive are the calls of the source.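 The calls were made as follows: active = z-score in the third read window above 3 or below -3; inactive = the rest.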

These compounds were tested against Metabotropic glutamate receptor 8 (Rattus norvegicus) (UniProt P70579) (assay: rat mGluR8 modulators via GIRK flux, primary screen, cell-based, thallium flux, HTS (AID 488969)). Conditions: HEK293 rat mGluR8, GIRK (G protein-gated inwardly rectifying potassium channel) thallium flux, FluoZin2; at 10 µM; stronger effect = higher value; submaximal glutamate (EC20) added with thallium.
Chain of UniProt P70579 (P70579 whole entry, looked up): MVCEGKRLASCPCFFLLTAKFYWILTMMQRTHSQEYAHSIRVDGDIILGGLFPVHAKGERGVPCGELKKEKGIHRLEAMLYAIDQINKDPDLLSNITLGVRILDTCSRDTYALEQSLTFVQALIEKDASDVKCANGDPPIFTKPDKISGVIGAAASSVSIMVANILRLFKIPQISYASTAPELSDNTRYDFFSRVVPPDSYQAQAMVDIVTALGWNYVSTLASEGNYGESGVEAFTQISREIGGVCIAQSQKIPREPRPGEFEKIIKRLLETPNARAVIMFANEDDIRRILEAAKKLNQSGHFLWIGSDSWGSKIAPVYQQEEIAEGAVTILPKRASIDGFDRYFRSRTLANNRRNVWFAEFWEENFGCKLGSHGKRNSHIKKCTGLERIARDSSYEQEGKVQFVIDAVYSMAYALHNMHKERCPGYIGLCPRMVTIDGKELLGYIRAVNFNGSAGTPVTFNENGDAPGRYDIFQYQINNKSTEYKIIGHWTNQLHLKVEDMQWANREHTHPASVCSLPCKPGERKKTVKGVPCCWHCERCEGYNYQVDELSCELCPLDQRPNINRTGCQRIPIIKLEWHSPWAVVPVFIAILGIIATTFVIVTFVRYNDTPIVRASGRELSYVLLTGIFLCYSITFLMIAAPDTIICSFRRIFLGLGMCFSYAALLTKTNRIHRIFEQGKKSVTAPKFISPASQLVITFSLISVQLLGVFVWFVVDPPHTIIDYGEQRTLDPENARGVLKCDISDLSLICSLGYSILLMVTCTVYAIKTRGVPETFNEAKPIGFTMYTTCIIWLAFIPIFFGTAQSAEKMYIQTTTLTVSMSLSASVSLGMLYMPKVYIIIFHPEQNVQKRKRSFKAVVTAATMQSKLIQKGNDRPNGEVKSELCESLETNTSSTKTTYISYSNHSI

Compared with `COc1ccc(C2CC(=O)c3c(ccc4ccccc34)N2)cc1OC` (stereo not given), `COc1ccc2[nH]cc(C(=O)CN(C)CCc3ccc(OC)c(OC)c3)c2c1` is higher in z-score: 0.387 for the first, 0.489 for the second.

Going from `O=C1OC(Cc2ccncc2)C(O)=C1C1=NCCCN1` (stereo not given) to `O=c1[nH]c(CN2CCN(CCO)CC2)nc2ccccc12`, the z-score rises from -0.135 to 0.00285.

Going from `CC(=O)C1=C(C)NC(SCC(=O)Nc2nccs2)=C(C#N)C1c1ccccc1Cl` (stereo not given) to `O=C(CSc1n[nH]c(-c2ccc(Cl)cc2Cl)n1)Nc1ccccn1`, the z-score rises from -1.18 to -0.406.

Going from `Cc1ccccc1C(=O)N1CCC(C(=O)Nc2ccc(S(=O)(=O)N3CCCC3)cc2)CC1` to `Cc1ccc(S(=O)(=O)N2CCC(C(=O)N3CCC[C@H]3C(=O)NC3CCS(=O)(=O)C3)CC2)cc1` (stereo not given in full), the z-score rises from -1.06 to -0.182.

Compared with `Cc1nc2ccccn2c1C(=O)N=Nc1c(O)[nH]c2ccccc12`, `C=C(C)C1CC=C(C)/C(=N/NC(=O)COc2cccc3ccccc23)C1` (stereo not given) is higher in z-score: -0.339 for the first, 0.0808 for the second.

Going from `Cc1ccc(-n2c(-c3cccs3)nc3nc4ccccc4nc32)cc1` to `O=C(N/N=C/c1ccc(F)cc1)c1cc(-c2ccco2)nc2ccccc12`, the z-score falls from 0.827 to -0.0949.

Going from `CCOC(=O)C1CCCN(S(=O)(=O)c2ccc(OC)c3ccccc23)C1` (stereo not given) to `COc1ccc(CN2CCN(C(=O)CC(C)C)CC2)c2ccccc12`, the z-score falls from 1.42 to 0.562.

Going from `CC1=C(C(=O)OC(C)C)C(c2cccs2)NC(=S)N1` (stereo not given) to `CC(=O)c1cc(Cl)ccc1OC(=O)c1ccco1`, the z-score rises from -0.124 to 0.12.

Going from `COc1ccc(C2CC(=O)C=C(NC3CCCC3)C2)cc1` (stereo not given) to `CCC(C)(C(=O)NC1CCCCC1)N(Cc1ccco1)C(=O)Cc1cccs1` (stereo not given), the z-score falls from 0.141 to -0.493.

Compared with `CC(=O)NC(=O)c1ccc(-c2ccc(Cl)cc2)o1`, `Cc1oc(-c2ccc(Cl)cc2)[n+]([O-])c1C` is higher in z-score: -0.365 for the first, -0.0329 for the second.

Going from `COCC(=O)Nc1sc2c(c1C(=O)OC)CCC(C)C2` (stereo not given) to `CCOc1ccc(CC(=O)Nc2sc(Cc3ccccc3)c(C)c2C(N)=O)cc1OCC`, the z-score rises from -0.444 to -0.176.

Going from `COc1ccc(Cl)c(Cn2c(NCc3ccccn3)nc3c2c(=O)n(C)c(=O)n3C)c1` to `Cc1cccc(C)c1NC(=O)C(=O)NCc1ccccn1`, the z-score rises from -2.16 to 0.282.

First: Cc1cccc(-n2ncc3c(N4CCC(C)CC4)ncnc32)c1
Second: Cc1cccc(Nc2nc(N)nc(CSC(=S)N3CCOCC3)n2)c1
The z-score of the first is higher: 0.0351 for the first, -0.0162 for the second.

First: C1CCN(CCCNC2C3CC4CC(C3)CC2C4)C1 (stereo not given)
Second: O=[N+]([O-])c1ccc(Cl)cc1NCCCN1CCOCC1
The z-score of the first is higher: 0.869 for the first, -0.718 for the second.

Going from `COc1ccc(-c2nn(C)c(=O)c3ccccc23)cc1NS(C)(=O)=O` to `COc1cc(SC)ccc1C(=O)Nc1ccccc1C#N`, the z-score falls from 0.596 to -0.0123.

Going from `CC(=O)N=c1ncn(CC(COC(C)=O)OC(C)=O)c2nc[nH]c12` (stereo not given) to `Cc1ccc(C)c(NC(=O)CCC(=O)N/N=C/c2ccc[nH]2)c1`, the z-score falls from 0.992 to -0.47.

Going from `Cc1ccc2c3c1C1(C(=O)N3C(C)(C)CC2C)C(C#N)=C(N)Oc2cc(O)ccc21` (stereo not given) to `Cc1n[nH]c(C)c1N1C(=O)c2cccc3cc(Br)cc(c23)C1=O`, the z-score falls from 0.214 to 0.154.

Going from `O=C(Cn1ncc2c3ccccc3n(Cc3ccccc3)c2c1=O)N1CCN(c2ncccn2)CC1` to `CC(C)Cn1c(=O)c2ccccc2n2c(SCC(=O)N3c4ccccc4CC3C)nnc12` (stereo not given), the z-score falls from -0.147 to -0.53.

First: Cc1ccc(C)c(C(=O)Nc2c(C(N)=O)oc3ccccc23)c1
Second: Cc1cc(C)c(C(N)=O)c(NC(=O)Nc2ccccc2)n1
The z-score of the first is higher: -0.172 for the first, -0.365 for the second.

Compared with `COc1ccc(Cl)cc1C(=O)NNC(=S)NC(=O)c1cc(-c2ccccc2)nc2ccccc12`, `COc1cc(-c2cc(C(=O)NN3CCN(C)CC3)c3ccccc3n2)cc(OC)c1OC` is lower in z-score: 1.06 for the first, -0.264 for the second.

Going from `COc1cc(NC(=O)COC(=O)CSc2ccc3ccccc3c2)c(C)cc1[N+](=O)[O-]` to `COc1ccc(Cl)cc1NC(=O)CNc1ccc(F)cc1C`, the z-score falls from 0.0632 to -0.449.

Going from `CC(=O)C(Sc1nn(C)c(=S)s1)C(=O)Nc1ccccc1` (stereo not given) to `Cc1ccc(NC(=O)C2(c3ccccc3)CC2(Cl)Cl)cc1C` (stereo not given), the z-score falls from 0.091 to -0.293.

Going from `O=C(CSc1nnc(CCc2ccccc2)n1-c1ccc(Cl)cc1)c1ccccc1` to `Oc1ccc(C2N=C(c3ccccc3)NC(c3ccccc3)=N2)cc1`, the z-score rises from -0.506 to -0.128.

Compared with `COc1cc(CCC(=O)Nc2ccc(Br)c(C(F)(F)F)c2)cc(OC)c1OC`, `O=C(Nc1cccc(C(F)(F)F)c1)c1cc(-c2ccc(F)cc2)on1` is lower in z-score: 0.067 for the first, -0.388 for the second.

First: Cc1noc(C)c1S(=O)(=O)N1CCC(C(=O)NC2CCCc3ccccc32)CC1 (stereo not given)
Second: CC1CC(C)CN(S(=O)(=O)c2ccc3c(c2)oc(=O)n3CC(=O)N2CCOCC2)C1 (stereo not given)
The z-score of the first is lower: -0.315 for the first, -0.278 for the second.

Going from `c1ccc(Nc2ncnc3sc4c(c23)CCC4)cc1` to `CC1=NN2C(=N)/C(=C\c3ccc(SCc4ccccc4)o3)C(=O)N=C2S1`, the z-score rises from -0.551 to -0.21.

Going from `C=CCn1c(SC/C=C/c2ccccc2)nnc1-c1sc(N)nc1C` to `O=C(NCc1ccccn1)c1cn(CCc2ccccc2)nn1`, the z-score falls from -0.233 to -0.818.

First: O=C(CCCSc1ccccc1)Nc1nc(-c2ccco2)c(-c2ccco2)s1
Second: Cc1ccccc1CCN(C(=O)Cn1nnc2ccccc21)C(C(=O)NCC1CCCO1)c1nc2ccccc2n1C (stereo not given)
The z-score of the first is lower: -0.198 for the first, -0.147 for the second.

First: COc1cccc(C(=O)OCCN(C)C(C)(C)C)c1
Second: CCOC(=O)/C(C(N)=NCC(C)C)=C(/O)c1ccccc1
The z-score of the first is higher: -0.29 for the first, -0.583 for the second.

First: CCC(O)c1cc2c(cc1NC(=O)c1cccs1)OCCO2 (stereo not given)
Second: CC(C)(C)NS(=O)(=O)c1ccc(CCC(=O)NCc2ccc3c(c2)OCO3)cc1
The z-score of the first is higher: 0.423 for the first, 0.241 for the second.

Compared with `Cc1cc(Br)c(NC(=O)CCl)c(Br)c1`, `COC(=O)Nc1cccn(Cc2c(Cl)cccc2Cl)c1=O` is lower in z-score: 0.0161 for the first, -0.0369 for the second.

First: CN(C)CCCn1c(N)c(C#N)c2nc(C#N)c(C#N)nc21
Second: COc1ccc(-c2nnc(-c3ccc(OCC(C)C)cc3)o2)cc1
The z-score of the first is lower: 0.0606 for the first, 0.807 for the second.

Compared with `CC1N(C)c2cccc3cccc(c23)N1C`, `Nc1nc2n(n1)C(c1cccc(Br)c1)CC(c1ccccc1)N2` (stereo not given) is higher in z-score: -0.243 for the first, 0.751 for the second.

Going from `CCCCOc1ccc(Br)cc1CSC(=N)N` to `CC(C)CCNC(=O)C1CCC(=O)N1C(C)C` (stereo not given), the z-score falls from 0.623 to -0.118.

For `CCSc1nnc(NC(=O)c2nn(C(C)C)c(=O)c3ccccc23)s1`, the z-score was active: -3.38.
For `COc1ccc2occ(C(=O)c3ccc(N=C(C)N(C)C)cc3)c2c1`, the z-score was active: 3.46.
